# The other results are listed elsewhere or left out.
# What was measured:
# Test in all cases: glycan array binding signal (z-score within array); higher = stronger binding
# Settings in all cases: glycan notation: IUPAC condensed, linker removed
# [1] = molecular target: Man(a1-3)[Man(a1-6)]Man(a1-6)[Man(a1-2)Man(a1-3)]Man(b1-4)GlcNAc(b1-4)GlcNAc
# Method in brief: (§1)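 The Consortium for Functional Glycomics database supplied 3228 glycan arrays, of which those lacking an available protein sequence were dropped. The binding signal, a within-array Z-score, was averaged across arrays of the same protein sequence and across linkers. Negative scores can be read as non-binding.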
# [2] = molecular target: Man(a1-3)[Man(a1-6)]Man(a1-6)[Man(a1-3)]Man
# Method in brief: as §1
# [3] = molecular target: Man(a1-3)[Man(a1-6)]Man(a1-6)[Man(a1-3)]Man(b1-4)GlcNAc(b1-4)GlcNAc
# Method in brief: as §1
# [4] = molecular target: Man(a1-3)[Man(a1-6)]Man(b1-4)GlcNAc(b1-4)GlcNAc
# Method in brief: as §1
# Man(a1-6)Man = molecular target: Man(a1-6)Man
# Method in brief: as §1
# Man(b1-4)GlcNAc = molecular target: Man(b1-4)GlcNAc
# Method in brief: as §1
# Neu5Ac(a2-3)Gal = molecular target: Neu5Ac(a2-3)Gal
# Method in brief: as §1
# [5] = molecular target: Neu5Ac(a2-3)Gal(b1-3)GalNAc
# Method in brief: as §1
# [6] = molecular target: Neu5Ac(a2-3)Gal(b1-3)GalNAc(b1-3)Gal(a1-4)Gal(b1-4)Glc
# Method in brief: as §1
# [7] = molecular target: Neu5Ac(a2-3)Gal(b1-3)GalNAc(b1-3)Gal(b1-4)GlcNAc
# Method in brief: as §1
# [8] = molecular target: Neu5Ac(a2-3)Gal(b1-3)GalNAc(b1-4)[Neu5Ac(a2-3)]Gal(b1-4)Glc
# Method in brief: as §1
# [9] = molecular target: Neu5Ac(a2-3)Gal(b1-3)GalNAc6S
# Method in brief: as §1
# [10] = molecular target: Neu5Ac(a2-3)Gal(b1-3)GlcNAc
# Method in brief: as §1
# [11] = molecular target: Neu5Ac(a2-3)Gal(b1-3)GlcNAc(b1-3)Gal(b1-3)GlcNAc
# Method in brief: as §1
# [12] = molecular target: Neu5Ac(a2-3)Gal(b1-3)GlcNAc6S
# Method in brief: as §1
# [13] = molecular target: Neu5Ac(a2-3)Gal(b1-3)[Fuc(a1-4)]GlcNAc
# Method in brief: as §1
# [14] = molecular target: Neu5Ac(a2-3)Gal(b1-3)[Fuc(a1-4)]GlcNAc(b1-3)Gal(b1-4)[Fuc(a1-3)]GlcNAc
# Method in brief: as §1
# [15] = molecular target: Neu5Ac(a2-3)Gal(b1-3)[Neu5Ac(a2-3)Gal(b1-4)]GlcNAc
# Method in brief: as §1
# [16] = molecular target: Neu5Ac(a2-3)Gal(b1-3)[Neu5Ac(a2-6)]GalNAc
# Method in brief: as §1
# Neu5Ac(a2-3)Gal(b1-4)Glc = molecular target: Neu5Ac(a2-3)Gal(b1-4)Glc
# Method in brief: as §1
# [17] = molecular target: Neu5Ac(a2-3)Gal(b1-4)GlcNAc
# Method in brief: as §1
# [18] = molecular target: Neu5Ac(a2-3)Gal(b1-4)GlcNAc(b1-2)Man(a1-3)[GlcNAc(b1-2)Man(b1-4)GlcNAc(b1-2)Man(a1-6)]Man(b1-4)GlcNAc(b1-4)GlcNAc
# Method in brief: as §1
# [19] = molecular target: Neu5Ac(a2-3)Gal(b1-4)GlcNAc(b1-2)Man(a1-3)[Neu5Ac(a2-6)Gal(b1-4)GlcNAc(b1-2)Man(a1-6)]Man(b1-4)GlcNAc(b1-4)GlcNAc
# Method in brief: as §1
# [20] = molecular target: Neu5Ac(a2-3)Gal(b1-4)GlcNAc(b1-3)Gal(b1-3)GlcNAc
# Method in brief: as §1
# [21] = molecular target: Neu5Ac(a2-3)Gal(b1-4)GlcNAc(b1-3)Gal(b1-4)GlcNAc
# Method in brief: as §1
# [22] = molecular target: Neu5Ac(a2-3)Gal(b1-4)GlcNAc(b1-3)Gal(b1-4)GlcNAc(b1-3)Gal(b1-4)GlcNAc
# Method in brief: as §1
# [23] = molecular target: Neu5Ac(a2-3)Gal(b1-4)GlcNAc(b1-3)Gal(b1-4)[Fuc(a1-3)]GlcNAc
# Method in brief: as §1
# [24] = molecular target: Neu5Ac(a2-3)Gal(b1-4)GlcNAc(b1-6)[Gal(b1-3)]GalNAc
# Method in brief: as §1
# [25] = molecular target: Neu5Ac(a2-3)Gal(b1-4)GlcNAc(b1-6)[Neu5Ac(a2-3)Gal(b1-3)]GalNAc
# Method in brief: as §1
# [26] = molecular target: Neu5Ac(a2-3)Gal(b1-4)GlcNAc6S
# Method in brief: as §1
# [27] = molecular target: Neu5Ac(a2-3)Gal(b1-4)[Fuc(a1-3)]GlcNAc
# Method in brief: as §1
# [28] = molecular target: Neu5Ac(a2-3)Gal(b1-4)[Fuc(a1-3)]GlcNAc(b1-3)Gal
# Method in brief: as §1
# [29] = molecular target: Neu5Ac(a2-3)Gal(b1-4)[Fuc(a1-3)]GlcNAc(b1-3)Gal(b1-4)GlcNAc
# Method in brief: as §1
# [30] = molecular target: Neu5Ac(a2-3)Gal(b1-4)[Fuc(a1-3)]GlcNAc(b1-3)Gal(b1-4)[Fuc(a1-3)]GlcNAc(b1-3)Gal(b1-4)[Fuc(a1-3)]GlcNAc
# Method in brief: as §1
# [31] = molecular target: Neu5Ac(a2-3)Gal(b1-4)[Fuc(a1-3)]GlcNAc(b1-6)[Gal(b1-3)]GalNAc
# Method in brief: as §1
# [32] = molecular target: Neu5Ac(a2-3)Gal(b1-4)[Fuc(a1-3)]GlcNAc6S
# Method in brief: as §1
# [33] = molecular target: Neu5Ac(a2-3)Gal6S(b1-4)GlcNAc
# Method in brief: as §1
binder,measurement,setting,value
"Ficolin A (Rattus norvegicus), Q9WTS8 (protein) MWWPMLWAFPVLLCLCSSQALGQESGACPDVKIVGLGAQDKVAVIQSCPSFPGPPGPKGEPGSPAGRGERGLQGSPGKMGPPGSKGEPGTMGPPGVKGEKGERGTASPLGQKELGDALCRRGPRSCKDLLTRGIFLTGWYTIYLPDCRPLTVLCDMDVDGGGWTVFQRRVDGSINFYRDWDSYKRGFGNLGTEFWLGNDYLHLLTANGNQELRVDLREFQGQTSFAKYSSFQVSGEQEKYKLTLGQFLEGTAGDSLTKHNNMAFSTHDQDNDTNGGKNCAALFHGAWWYHDCHQSNLNGRYLPGSHESYADGINWLSGRGHRYSYKVAEMKIRAS",glycan array binding signal (z-score),[1],-0.036
same,glycan array binding signal (z-score),[2],-0.064
same,glycan array binding signal (z-score),[3],-0.03
same,glycan array binding signal (z-score),[4],-0.067
same,glycan array binding signal (z-score),Man(a1-6)Man,-0.108
same,glycan array binding signal (z-score),Man(b1-4)GlcNAc,-0.099
same,glycan array binding signal (z-score),Neu5Ac(a2-3)Gal,-0.112
same,glycan array binding signal (z-score),[5],-0.106
same,glycan array binding signal (z-score),[6],-0.114
same,glycan array binding signal (z-score),[7],-0.082
same,glycan array binding signal (z-score),[8],-0.115
same,glycan array binding signal (z-score),[9],-0.102
same,glycan array binding signal (z-score),[10],-0.011
same,glycan array binding signal (z-score),[11],-0.095
same,glycan array binding signal (z-score),[12],-0.028
same,glycan array binding signal (z-score),[13],-0.084
same,glycan array binding signal (z-score),[14],-0.064
same,glycan array binding signal (z-score),[15],-0.085
same,glycan array binding signal (z-score),[16],0.325
same,glycan array binding signal (z-score),Neu5Ac(a2-3)Gal(b1-4)Glc,0.022
same,glycan array binding signal (z-score),[17],-0.096
same,glycan array binding signal (z-score),[18],-0.058
same,glycan array binding signal (z-score),[19],-0.027
same,glycan array binding signal (z-score),[20],-0.098
same,glycan array binding signal (z-score),[21],-0.097
same,glycan array binding signal (z-score),[22],-0.015
same,glycan array binding signal (z-score),[23],-0.084
same,glycan array binding signal (z-score),[24],-0.098
same,glycan array binding signal (z-score),[25],-0.104
same,glycan array binding signal (z-score),[26],0.064
same,glycan array binding signal (z-score),[27],-0.07
same,glycan array binding signal (z-score),[28],-0.04
same,glycan array binding signal (z-score),[29],0.009
same,glycan array binding signal (z-score),[30],-0.107
same,glycan array binding signal (z-score),[31],-0.048
same,glycan array binding signal (z-score),[32],-0.092
same,glycan array binding signal (z-score),[33],-0.033
